{"source": "PubChem BioAssay AID904", "about": "(National Center for Advancing Translational Sciences (NCATS), 2007)", "note": "Screen size: about 55,000 compounds; about 530 (0.96%) were called active. The inconclusive results got no clear call from the source; some entries with a clear call stand among them for comparison. Calls follow the shape of the dose curve; as a rule, active = well fitted cell-killing curve with a large enough effect; inconclusive = small, poorly fitted or top-dose-only effect; inactive = no such curve, though single readings can be large or run the other way. Potencies beside an inconclusive call are fits to weak or partial responses and may not hold up. Potency is read from the fitted curve at half-maximal effect; tags tell the direction and shape of the fitted curve."}
{"assay": "qHTS Screen for Compounds that Selectively Target Cancer Cells with p53 Mutations: Cytotoxicity of p53 Null Cells at the Nonpermissive Temperature; also: nearly all actives have a fitted effect of over 50% in size;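 as to activity, negative = cell killing: 0% = DMSO only and -100% = full killing by 100 µM tamoxifen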", "conditions": "H1299 p53-null (neo) cells, 39C, ATPlite viability, 24 h; activity, negative = cell killing: at 46.1 µM (top of the series)", "summary_of_the_method": "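Cells seeded at 600/well, 37C overnight. Compound added (up to 46 uM), plates shifted to 39C for 24 hr. ATPlite added, luminescence read after 20 min at room temperature.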"}
{"smiles": "COc1ccc(C(Nc2ccccn2)c2ccc3ccc(C)nc3c2O)cc1C", "note": "(centres undefined)", "Potency": "inconclusive: 12.6 µM [cytotoxic, partial curve]"}
{"smiles": "CC(=O)c1ccc(NS(=O)(=O)c2ccc3c(c2)NC(=O)CCS3)cc1", "Potency": "inactive"}
{"smiles": "Oc1c(C(Nc2ccccn2)c2ccccc2F)ccc2cccnc12", "note": "(centres undefined)", "Potency": "active: 3.98 µM"}
{"smiles": "Cc1ccc(S(=O)(=O)C(CNS(=O)(=O)c2cc(F)ccc2F)c2cccs2)cc1", "note": "(centres undefined)", "Potency": "inconclusive: 0.0891 µM [cytotoxic, full curve, poor fit]"}
{"smiles": "CSc1ccccc1NC(=O)CCS(=O)(=O)c1nc(-c2ccc3c(c2)OCO3)cc(C(F)(F)F)n1", "Potency": "inconclusive: 12.6 µM [cytotoxic, single point]"}
{"smiles": "CCN(Cc1nc(-c2ccc(OC)c(OC)c2)no1)S(=O)(=O)c1ccc(OC)cc1", "Potency": "inconclusive: 0.01 µM [cytotoxic, full curve, poor fit]"}
{"smiles": "COc1ccc(-c2nc3sc(CCNC(=O)c4ccc(Br)o4)c(C)n3n2)cc1", "Potency": "inconclusive: 15.8 µM [cytotoxic, partial curve]"}
{"smiles": "Cc1nc(-c2ccc(F)cc2)sc1CCNC(=O)Cc1ccc(F)cc1", "Potency": "inconclusive: 0.126 µM [cytotoxic, full curve]"}
{"smiles": "O=C(CSc1nc(-c2cccc(F)c2)[nH]c1-c1ccccc1)Nc1ccc2c(c1)OCO2", "Potency": "inconclusive: 20 µM [cytotoxic, single point]"}
{"smiles": "Cc1cc(C)c2c(N)c(C(=O)NCc3ccco3)sc2n1", "Potency": "inactive"}
{"smiles": "Cc1ccccc1Nc1c(-c2ccc(N3CCOCC3)cc2)nc2ccc(Br)cn12", "Potency": "active: 10 µM"}
{"smiles": "COc1ccc2[nH]cc(CCN=C(NC(=O)c3ccccc3OC)Nc3nc(C)cc(C)n3)c2c1", "Potency": "inactive"}
{"smiles": "Cc1nc2cccnc2n1C1CCN(C(=O)Nc2ccc(Cl)cc2)CC1", "Potency": "inactive"}
{"smiles": "CCCCOC(=O)c1ccc(NC(=O)c2sc3nc(C)cc(C)c3c2N)cc1", "Potency": "inconclusive: 31.6 µM [cytotoxic, single point]"}
{"smiles": "CC1CCN(c2ccc(-c3cccc(NS(=O)(=O)c4ccc(F)cc4F)c3)nn2)CC1", "Potency": "active: 10 µM"}
{"smiles": "CCOc1ccc(C(=O)Nc2nnc(SCc3cc(=O)n4ccccc4n3)s2)cc1", "Potency": "inconclusive: 0.0063 µM [cytotoxic, full curve, poor fit]"}
{"smiles": "FC(F)(F)c1cc(-c2ccccc2)nc2cc(-c3ccccc3)nn12", "Potency": "inconclusive: 0.0158 µM [cytotoxic, full curve, poor fit]"}
{"smiles": "COc1cccc(NC(=O)c2c(C)oc3nc(C)nc(N4CCCC4)c23)c1", "Potency": "inactive"}
{"smiles": "CCCN1Cc2cccc(C(=O)Nc3cc(Cl)ccc3C)c2C1=O", "Potency": "inactive"}
{"smiles": "COc1cc(-c2nc(SCC(=O)Nc3ccc4c(c3)OCO4)c(-c3ccccc3)[nH]2)cc(OC)c1OC", "Potency": "inconclusive: 10 µM [cytotoxic, partial curve]"}
{"smiles": "CCn1c(COc2ccc(Cl)cc2Cl)nc2ccccc21", "Potency": "inconclusive: 25.1 µM [cytotoxic, partial curve, poor fit]"}
{"smiles": "O=S(=O)(c1ccc(F)cc1)N1CCC(Oc2cccc(C(F)(F)F)c2)CC1", "Potency": "inconclusive: 35.5 µM [cytotoxic, single point]"}
{"smiles": "COc1ccccc1CNC(=O)CCc1c(C)nc2cc(-c3ccc(Cl)cc3)nn2c1C", "Potency": "inactive"}
{"smiles": "CCc1ccc(CNC(=O)C2CCCN(c3nnc(C)c4c(C)n(-c5ccccc5)nc34)C2)cc1", "note": "(centres undefined)", "Potency": "active: 15.8 µM"}
{"smiles": "Cc1ccc2c(CNC3CCCCC3)c(C(=O)O)n(Cc3ccc(F)cc3)c2c1", "Potency": "inconclusive: 1 µM [cytotoxic, partial curve]"}
{"smiles": "CCCCN(C)CC(O)Cn1cc(/C=C/C(=O)c2ccc(Br)cc2)c2ccccc21", "note": "(centres undefined)", "Potency": "active: 12.6 µM"}
{"smiles": "CCCCCCCCC(=O)NCCOc1ccccc1", "Potency": "inactive"}
{"smiles": "c1ccc(CCNc2ncnc3c2cnn3-c2ccccc2)cc1", "Potency": "inactive"}
{"smiles": "COc1ccc(NC(=O)Nc2cc(-c3cn4cccnc4n3)ccc2C)cc1", "Potency": "inactive"}
{"smiles": "COc1ccccc1CNC(=O)Cc1csc2nc(-c3ccc(F)cc3)cn12", "Potency": "inconclusive: 35.5 µM [cytotoxic, single point]"}
{"smiles": "COc1cccc(CSc2nc3ccncc3n2CC(=O)Nc2ccc(OC)c(OC)c2OC)c1", "Potency": "inconclusive: 0.0079 µM [cytotoxic, full curve, poor fit]"}
{"smiles": "Cc1ccc(CNC(=O)CSc2nc3c(sc4ccccc43)c(=O)n2CCCC(=O)NCCO)cc1", "Potency": "inconclusive: 11.2 µM [cytotoxic, partial curve]"}
{"smiles": "O=C(Nc1ccc(F)cc1)Nc1csc2c1CCCC2", "Potency": "inconclusive: 14.1 µM [cytotoxic, single point]"}
{"smiles": "O=C(Nc1nc2c(F)cc(F)cc2s1)c1ccc(S(=O)(=O)N2CCc3ccccc32)cc1", "Potency": "inactive"}
{"smiles": "CCOc1ccc(Nc2nc(-c3cccc(Cl)c3)c3c(n2)-c2ccccc2OC3)cc1", "Potency": "inconclusive: 1.58 µM [cytotoxic, full curve, poor fit]"}
{"smiles": "COc1ccc(CCCc2nnc(SCC(=O)Nc3cccc(F)c3C)o2)cc1", "Potency": "inconclusive: 0.01 µM [cytotoxic, full curve, poor fit]"}
{"smiles": "COc1cc(/C=C(\\C#N)c2nc3ccc(C)cc3[nH]2)ccc1OCc1ccc(C)cc1", "Potency": "active: 12.6 µM"}
{"smiles": "Cc1ccc(C)c(N2CCN(C(=O)Cn3cnc4onc(-c5ccc(F)cc5)c4c3=O)CC2)c1", "Potency": "inactive"}
{"smiles": "CCCOc1ccc(C2c3c(-c4ccccc4O)n[nH]c3C(=O)N2CCc2ccccc2)cc1OCC", "note": "(centres undefined)", "Potency": "inconclusive: 22.4 µM [cytotoxic, single point]"}
{"smiles": "CCOc1ccc(-c2cccc(NS(=O)(=O)c3ccc(F)cc3F)c2)nn1", "Potency": "inconclusive: 0.282 µM [cytotoxic, full curve]"}
{"smiles": "CCCN1CCN(CCCNC(=O)c2cc3c(=O)n(CC)c4ccccc4c3s2)CC1", "Potency": "inactive"}
{"smiles": "Cc1cccc(-n2c(C)cc(C(=O)C(=O)Nc3ccccc3F)c2C)c1C", "Potency": "inactive"}
{"smiles": "CC(=O)c1cc(C(c2csc(C(C)=O)c2)c2csc(C(C)=O)c2)cs1", "Potency": "inconclusive: 25.1 µM [cytotoxic, partial curve, poor fit]"}
{"smiles": "Cc1ccc(-n2c(SCc3ccccc3F)nc3[nH]ncc3c2=O)cc1Cl", "Potency": "inconclusive: 35.5 µM [cytotoxic, single point]"}
{"smiles": "O=S(=O)(c1ccc(-c2cc(C(F)(F)F)on2)s1)N1CCN(c2ccccc2F)CC1", "Potency": "inactive"}
{"smiles": "Cc1cc(C)n(-c2nc(Nc3ccccc3C(F)(F)F)nc(-n3nc(C)cc3C)n2)n1", "Potency": "inconclusive: 14.1 µM [cytotoxic, partial curve, poor fit]"}
{"smiles": "COc1ccc(NC(=O)CN2C(=O)CCn3nc(-c4cccn4C)cc32)cc1Cl", "Potency": "inconclusive: 0.158 µM [cytotoxic, full curve, poor fit]"}
{"smiles": "CN(C)c1ccc(CNC(=O)c2ccc(Cn3c(SCc4ccccc4)nc4cccnc43)cc2)cc1", "activity, negative = cell killing": "inconclusive: -30.5% [cytotoxic]"}
{"smiles": "CCCCCn1c(NCc2ccc(OC)cc2)nc2ccccc21", "Potency": "inconclusive: 6.31 µM [cytotoxic, partial curve]"}
{"smiles": "COc1cc(NC(=O)c2cc(C3CC3)nc3c2c(C)nn3-c2ccccc2)cc(OC)c1", "Potency": "inconclusive: 2 µM [cytotoxic, partial curve]"}
{"smiles": "Cc1cccc(N(C)c2nc3ccccc3c3nnc(C)n23)c1", "Potency": "inactive"}
{"smiles": "CC(C)c1nn2c(=O)cc(COC(=O)c3cccc(NC(=O)COc4ccc(F)cc4)c3)nc2s1", "Potency": "inactive"}
{"smiles": "Cc1cc2c(n1-c1ccc(C(=O)NCCc3ccc(Cl)cc3)cc1)CCCC2", "Potency": "inactive"}
{"smiles": "CCc1ccc(C(=O)c2cn(CC(=O)Nc3ccc4c(c3)OCO4)c3ccc(CC)cc3c2=O)cc1", "Potency": "inconclusive: 12.6 µM [cytotoxic, partial curve]"}
{"smiles": "Cc1ccc(NC(=O)C(Cc2c[nH]c3ccccc23)NC(=O)OC(C)(C)C)c(C)c1", "note": "(centres undefined)", "Potency": "inactive"}
{"smiles": "Cc1ccc(Nc2nc3nonc3nc2Nc2cccc(C(F)(F)F)c2)cc1Cl", "Potency": "inconclusive: 1.26 µM [cytotoxic, full curve, poor fit]"}
{"smiles": "COc1cccc(CNC(=O)C2CCC(CNS(=O)(=O)c3ccc4c(c3)CCCC(=O)N4)CC2)c1", "note": "(centres undefined)", "Potency": "inconclusive: 4.47 µM [cytotoxic, partial curve]"}
{"smiles": "Cc1cc(C)c(Nc2nc3ccccc3n3c(C)nnc23)c(C)c1", "Potency": "inconclusive: 2.51 µM [cytotoxic, single point]"}
{"smiles": "CCOc1ccc(Nc2oc(-c3ccc(COc4ccc(OC)cc4)o3)nc2C#N)cc1", "Potency": "inactive"}
{"smiles": "COc1ccc(NC(=O)c2ccco2)cc1NC(=O)COc1ccc(C)c(C)c1", "Potency": "inconclusive: 35.5 µM [cytotoxic, single point]"}
{"smiles": "CCCCNC(=O)c1nn(C)c2c1CSc1ccccc1-2", "Potency": "inactive"}
{"smiles": "Cc1nn(Cc2ccc(Cl)cc2Cl)c(C)c1NC(=O)CCl", "Potency": "active: 12.6 µM"}
{"smiles": "COc1cc(OC)cc(-c2cc3nc(C)c(CCC(=O)NCCc4cccc(C)c4)c(C)n3n2)c1", "activity, negative = cell killing": "inconclusive: -30.7% [cytotoxic]"}
{"smiles": "COc1ccc(-c2nc(CNC(=O)NC3CCCCC3)c(C)o2)cc1", "Potency": "inactive"}
{"smiles": "COc1cccc(NC(=O)NC2(C(F)(F)F)Oc3ccccc3O2)c1", "Potency": "inconclusive: 10 µM [cytotoxic, partial curve, poor fit]"}
{"smiles": "Cc1ccc(Cl)cc1NC(=O)c1ccc(NC(=O)N2CCSc3ncccc32)cc1", "Potency": "inconclusive: 35.5 µM [cytotoxic, single point]"}
{"smiles": "COc1cccc(CN2CCc3nc(Nc4ccc5c(c4)OCCO5)ncc3C2)c1OC", "Potency": "inactive"}
{"smiles": "O=C(CCS(=O)(=O)c1ccccc1)N(Cc1cccnc1)c1nc2c(Cl)cccc2s1", "Potency": "inactive"}
{"smiles": "CCc1ccc(NC(=O)c2ccc3c(=O)n4nc(Nc5ccccc5C)sc4nc3c2)cc1", "Potency": "inconclusive: 1 µM [cytotoxic, partial curve]"}
